The supplement of paper PMC4604168 (melanoma cell lines)
This is one part of the list. Single values are uncertain, as repeats are few or missing.

These compounds were tested on MeWo (assay: cell count relative to DMSO control; melanoma cells; higher = more viable cells). Details: library dose: low library concentration; 72 h; first compound 0.4 µM.
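Also: cell number obtained by counting DAPI-stained nuclei in high-throughput microscope images with image analysis software, screen run in 1,536-well plates.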

Question: `Cn1sc(=O)n(Cc2ccccc2)c1=O` + O=c1cc(-c2cccc3c2Sc2ccccc2S3)oc(N2CCOCC2)c1 [KU55933] (partner dose 1 µM) was tested. Which cell count did it give?
Answer: 118%

Question: Which cell count does the source give for `C[C@@H](N)c1ccc(C(=O)Nc2ccnc3[nH]ccc23)cc1` + COc1cc2c(Oc3ccc4[nH]c(C)cc4c3F)ncnc2cc1OCCCN1CCCC1 [cediranib] (partner dose 0.4 µM) here?
Answer: 62.3%

Question: `C[C@@H](N)c1ccc(C(=O)Nc2ccnc3[nH]ccc23)cc1` + COc1ccc(-c2ccc3c(N4CCOCC4)nc(N4C[C@@H](C)O[C@@H](C)C4)nc3n2)cc1CO [KU0063794] (partner dose 0.02 µM) was tested. Which cell count did it give?
Answer: 73.6%

Question: How did the cell count turn out when `C[C@@H](N)c1ccc(C(=O)Nc2ccnc3[nH]ccc23)cc1` + COC(=O)c1sccc1S(=O)(=O)Nc1ccc(Nc2ccccc2)cc1OC [GSK0660] (partner dose 1 µM) was run?
Answer: 99.5%

Question: Which cell count does the source give for `C[C@@H](N)c1ccc(C(=O)Nc2ccnc3[nH]ccc23)cc1` + COc1cc(Nc2ncc(F)c(Nc3ccc4c(n3)NC(=O)C(C)(C)O4)n2)cc(OC)c1OC [Tamatinib] (partner dose 0.4 µM) here?
Answer: 70.2%

Question: With `Cn1sc(=O)n(Cc2ccccc2)c1=O` + CCc1ccc(CCOc2ccc(CC3SC(=O)NC3=O)cc2)nc1 [pioglitazone] (partner dose 2 µM) as the compound, how does the cell count read?
Answer: 93.5%

Question: With `Cn1sc(=O)n(Cc2ccccc2)c1=O` + O=C(O)C(=O)Nc1sc2c(c1C(=O)O)CCNC2 [TCS401] (partner dose 1.66667 µM) as the compound, how does the cell count read?
Answer: 101%

Question: How did the cell count turn out when `CCCCCCCCCCCCCCCCCCOP(=O)([O-])OC1CC[N+](C)(C)CC1` [Perifosine] + O=S(=O)(c1ccccc1)N(CC(F)(F)F)c1ccc(C(O)(C(F)(F)F)C(F)(F)F)cc1 [T0901317] (partner dose 1.4 µM) was run?
Answer: 93.5%

Question: How did the cell count turn out when `CCCCCCCCCCCCCCCCCCOP(=O)([O-])OC1CC[N+](C)(C)CC1` [Perifosine] + N#Cc1c(O)c2c(-c3ccc(-c4ccccc4O)cc3)csc2[nH]c1=O [A769662] (partner dose 2 µM) was run?
Answer: 97.6%

Question: `C[C@@H](N)c1ccc(C(=O)Nc2ccnc3[nH]ccc23)cc1` + C[C@@H]1CCN(C(=O)CC#N)C[C@@H]1N(C)c1ncnc2[nH]ccc12 [CP690550] (partner dose 1 µM) was tested. Which cell count did it give?
Answer: 92.3%

Question: For `Cn1sc(=O)n(Cc2ccccc2)c1=O` + Oc1nc(-c2ccc(C(F)(F)F)cc2)nc2c1CSCC2 [XAV939] (partner dose 2 µM), which cell count is on record?
Answer: 100%

Question: Which cell count does the source give for `CCCCCCCCCCCCCCCCCCOP(=O)([O-])OC1CC[N+](C)(C)CC1` [Perifosine] + CC(C)CCN1c2nc(Nc3cc(F)c(O)c(F)c3)ncc2N(C)C(=O)C1C [BID1870] (partner dose 0.2 µM) here?
Answer: 88.6%

Question: Which cell count does the source give for `Cn1sc(=O)n(Cc2ccccc2)c1=O` + COc1cc2ncnc(Nc3ccc(Oc4ccccc4)cc3)c2cc1OC [SrcI1] (partner dose 2 µM) here?
Answer: 97.9%

Question: How did the cell count turn out when `Cn1sc(=O)n(Cc2ccccc2)c1=O` + COC(=O)c1sccc1S(=O)(=O)Nc1ccc(Nc2ccccc2)cc1OC [GSK0660] (partner dose 1 µM) was run?
Answer: 101%

Question: How did the cell count turn out when `Cn1sc(=O)n(Cc2ccccc2)c1=O` + CC1(C)NC(=O)N(c2ccc([N+](=O)[O-])c(C(F)(F)F)c2)C1=O [nilutamide] (partner dose 1 µM) was run?
Answer: 99.5%

Question: Which cell count does the source give for `Cn1sc(=O)n(Cc2ccccc2)c1=O` + COc1ccc(COc2ccc(Cc3cnc(N)nc3N)cc2OC)cc1 [GW2580] (partner dose 1 µM) here?
Answer: 103%

Question: With `C[C@@H](N)c1ccc(C(=O)Nc2ccnc3[nH]ccc23)cc1` + CCCCCCCCCCCC1=C(O)C(=O)C=C(O)C1=O [Embelin] (partner dose 1.2 µM) as the compound, how does the cell count read?
Answer: 62.6%

Question: How did the cell count turn out when `CCCCCCCCCCCCCCCCCCOP(=O)([O-])OC1CC[N+](C)(C)CC1` [Perifosine] + O=C(O)c1ccc(-c2c[nH]c3ncc(-c4ccccc4)cc23)cc1C1CCCC1 [GSK650394] (partner dose 0.16 µM) was run?
Answer: 97.9%

Question: Which cell count does the source give for `C[C@@H](N)c1ccc(C(=O)Nc2ccnc3[nH]ccc23)cc1` + CO[C@@H]1[C@H](N(C)C(=O)c2ccccc2)C[C@H]2O[C@]1(C)n1c3ccccc3c3c4c(c5c6ccccc6n2c5c31)C(=O)NC4 [Midostaurin] (partner dose 0.08 µM) here?
Answer: 71.9%

Question: How did the cell count turn out when `Cn1sc(=O)n(Cc2ccccc2)c1=O` + CN(NC(=O)CC(=O)NN(C)C(=S)c1ccccc1)C(=S)c1ccccc1 [STA4783] (partner dose 0.006 µM) was run?
Answer: 91.8%
